Measured values from PMC10336126.
Results are given in words; binding and its absence hold for the method and conditions named. Binding seen in cells or lysates may run through a third protein. Some results given as binding are weak or reduced against the parent protein; the word gives no strength. For some assays here: Where a sequence is shown, tags or fusion partners need not be part of it.

Amino acid sequences for entries named in this document (tags omitted).
UniProt Q7Z333: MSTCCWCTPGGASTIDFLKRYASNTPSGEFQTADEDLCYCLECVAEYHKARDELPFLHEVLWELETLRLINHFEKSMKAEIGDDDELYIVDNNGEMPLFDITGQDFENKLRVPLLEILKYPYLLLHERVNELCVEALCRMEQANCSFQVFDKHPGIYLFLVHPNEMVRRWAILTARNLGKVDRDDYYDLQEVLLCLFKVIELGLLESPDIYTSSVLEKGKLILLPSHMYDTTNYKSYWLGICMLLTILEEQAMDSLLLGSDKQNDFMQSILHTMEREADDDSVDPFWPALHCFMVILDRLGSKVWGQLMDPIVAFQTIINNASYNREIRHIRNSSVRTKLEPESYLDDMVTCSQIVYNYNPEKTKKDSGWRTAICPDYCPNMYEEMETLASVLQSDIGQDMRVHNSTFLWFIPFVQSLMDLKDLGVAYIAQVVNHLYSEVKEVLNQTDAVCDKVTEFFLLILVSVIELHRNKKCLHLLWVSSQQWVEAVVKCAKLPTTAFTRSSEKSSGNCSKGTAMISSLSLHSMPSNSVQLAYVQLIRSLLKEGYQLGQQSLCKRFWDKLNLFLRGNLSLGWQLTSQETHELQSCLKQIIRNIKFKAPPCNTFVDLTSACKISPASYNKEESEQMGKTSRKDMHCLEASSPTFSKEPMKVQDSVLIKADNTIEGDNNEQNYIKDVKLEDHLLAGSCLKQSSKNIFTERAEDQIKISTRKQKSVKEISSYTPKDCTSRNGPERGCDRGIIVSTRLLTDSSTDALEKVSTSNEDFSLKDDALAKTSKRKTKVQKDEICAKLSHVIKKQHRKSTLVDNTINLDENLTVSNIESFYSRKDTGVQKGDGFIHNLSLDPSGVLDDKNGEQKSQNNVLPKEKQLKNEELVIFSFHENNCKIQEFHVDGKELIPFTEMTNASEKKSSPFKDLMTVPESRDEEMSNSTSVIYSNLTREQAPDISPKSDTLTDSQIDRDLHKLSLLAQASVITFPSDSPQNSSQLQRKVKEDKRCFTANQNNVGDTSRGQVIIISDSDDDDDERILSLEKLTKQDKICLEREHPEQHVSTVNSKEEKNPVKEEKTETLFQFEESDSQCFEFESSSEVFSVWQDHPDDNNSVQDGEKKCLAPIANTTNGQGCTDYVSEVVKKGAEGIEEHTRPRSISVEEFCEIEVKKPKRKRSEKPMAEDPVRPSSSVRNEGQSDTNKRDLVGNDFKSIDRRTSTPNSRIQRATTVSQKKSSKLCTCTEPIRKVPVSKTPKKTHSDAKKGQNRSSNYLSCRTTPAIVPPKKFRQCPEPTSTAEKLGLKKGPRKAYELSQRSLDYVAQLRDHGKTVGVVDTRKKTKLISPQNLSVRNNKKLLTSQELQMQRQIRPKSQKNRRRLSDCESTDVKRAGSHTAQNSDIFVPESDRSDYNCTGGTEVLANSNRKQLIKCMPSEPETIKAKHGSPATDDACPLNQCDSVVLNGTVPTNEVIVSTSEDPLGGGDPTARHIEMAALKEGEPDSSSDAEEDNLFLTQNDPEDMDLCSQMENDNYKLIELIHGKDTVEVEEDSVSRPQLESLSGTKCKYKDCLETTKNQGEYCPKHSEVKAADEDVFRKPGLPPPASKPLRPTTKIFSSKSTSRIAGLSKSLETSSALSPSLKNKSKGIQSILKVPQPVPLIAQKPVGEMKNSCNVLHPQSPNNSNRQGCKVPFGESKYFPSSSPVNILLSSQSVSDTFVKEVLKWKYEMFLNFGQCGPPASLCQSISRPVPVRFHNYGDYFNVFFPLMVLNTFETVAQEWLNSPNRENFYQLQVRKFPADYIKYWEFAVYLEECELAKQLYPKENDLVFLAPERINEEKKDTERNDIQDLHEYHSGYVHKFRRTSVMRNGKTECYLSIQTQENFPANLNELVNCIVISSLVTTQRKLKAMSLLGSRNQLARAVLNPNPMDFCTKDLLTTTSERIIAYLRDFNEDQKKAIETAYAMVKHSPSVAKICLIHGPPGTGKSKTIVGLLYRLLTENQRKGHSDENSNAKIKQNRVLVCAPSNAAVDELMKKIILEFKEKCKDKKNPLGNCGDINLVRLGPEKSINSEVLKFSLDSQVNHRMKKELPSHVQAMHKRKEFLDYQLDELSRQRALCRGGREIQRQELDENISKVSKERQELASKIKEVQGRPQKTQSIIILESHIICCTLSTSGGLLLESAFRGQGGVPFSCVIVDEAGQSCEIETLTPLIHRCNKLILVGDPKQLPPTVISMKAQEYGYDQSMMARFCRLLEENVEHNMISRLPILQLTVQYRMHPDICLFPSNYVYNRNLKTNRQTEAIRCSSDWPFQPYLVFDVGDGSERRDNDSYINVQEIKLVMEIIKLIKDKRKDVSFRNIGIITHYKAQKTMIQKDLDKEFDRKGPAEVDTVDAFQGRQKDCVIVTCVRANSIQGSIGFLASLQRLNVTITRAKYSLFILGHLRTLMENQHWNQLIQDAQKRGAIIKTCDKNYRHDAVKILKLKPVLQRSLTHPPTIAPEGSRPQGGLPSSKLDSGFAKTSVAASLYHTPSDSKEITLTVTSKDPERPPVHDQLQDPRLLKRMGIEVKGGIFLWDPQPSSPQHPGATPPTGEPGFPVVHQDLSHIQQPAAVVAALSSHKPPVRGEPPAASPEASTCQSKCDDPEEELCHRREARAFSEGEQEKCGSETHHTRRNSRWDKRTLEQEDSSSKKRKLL
UniProt P62136: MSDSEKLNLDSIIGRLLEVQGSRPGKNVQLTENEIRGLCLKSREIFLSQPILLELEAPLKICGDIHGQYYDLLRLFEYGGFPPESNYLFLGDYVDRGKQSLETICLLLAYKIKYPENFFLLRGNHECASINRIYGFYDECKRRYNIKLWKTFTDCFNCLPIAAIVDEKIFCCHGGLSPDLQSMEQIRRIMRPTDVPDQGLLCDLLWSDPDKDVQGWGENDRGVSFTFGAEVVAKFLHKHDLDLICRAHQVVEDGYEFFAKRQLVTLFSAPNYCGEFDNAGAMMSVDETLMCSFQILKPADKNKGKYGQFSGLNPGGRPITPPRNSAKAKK
UniProt P32598: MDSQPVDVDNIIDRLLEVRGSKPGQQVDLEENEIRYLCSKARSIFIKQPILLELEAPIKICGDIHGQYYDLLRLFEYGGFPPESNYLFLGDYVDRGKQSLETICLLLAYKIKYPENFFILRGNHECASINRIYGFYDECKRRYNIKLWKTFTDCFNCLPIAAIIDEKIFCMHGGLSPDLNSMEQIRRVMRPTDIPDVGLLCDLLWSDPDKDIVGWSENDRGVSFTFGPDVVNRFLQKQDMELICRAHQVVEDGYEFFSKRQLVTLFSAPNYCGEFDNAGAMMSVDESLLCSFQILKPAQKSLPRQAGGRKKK
UniProt Q00416: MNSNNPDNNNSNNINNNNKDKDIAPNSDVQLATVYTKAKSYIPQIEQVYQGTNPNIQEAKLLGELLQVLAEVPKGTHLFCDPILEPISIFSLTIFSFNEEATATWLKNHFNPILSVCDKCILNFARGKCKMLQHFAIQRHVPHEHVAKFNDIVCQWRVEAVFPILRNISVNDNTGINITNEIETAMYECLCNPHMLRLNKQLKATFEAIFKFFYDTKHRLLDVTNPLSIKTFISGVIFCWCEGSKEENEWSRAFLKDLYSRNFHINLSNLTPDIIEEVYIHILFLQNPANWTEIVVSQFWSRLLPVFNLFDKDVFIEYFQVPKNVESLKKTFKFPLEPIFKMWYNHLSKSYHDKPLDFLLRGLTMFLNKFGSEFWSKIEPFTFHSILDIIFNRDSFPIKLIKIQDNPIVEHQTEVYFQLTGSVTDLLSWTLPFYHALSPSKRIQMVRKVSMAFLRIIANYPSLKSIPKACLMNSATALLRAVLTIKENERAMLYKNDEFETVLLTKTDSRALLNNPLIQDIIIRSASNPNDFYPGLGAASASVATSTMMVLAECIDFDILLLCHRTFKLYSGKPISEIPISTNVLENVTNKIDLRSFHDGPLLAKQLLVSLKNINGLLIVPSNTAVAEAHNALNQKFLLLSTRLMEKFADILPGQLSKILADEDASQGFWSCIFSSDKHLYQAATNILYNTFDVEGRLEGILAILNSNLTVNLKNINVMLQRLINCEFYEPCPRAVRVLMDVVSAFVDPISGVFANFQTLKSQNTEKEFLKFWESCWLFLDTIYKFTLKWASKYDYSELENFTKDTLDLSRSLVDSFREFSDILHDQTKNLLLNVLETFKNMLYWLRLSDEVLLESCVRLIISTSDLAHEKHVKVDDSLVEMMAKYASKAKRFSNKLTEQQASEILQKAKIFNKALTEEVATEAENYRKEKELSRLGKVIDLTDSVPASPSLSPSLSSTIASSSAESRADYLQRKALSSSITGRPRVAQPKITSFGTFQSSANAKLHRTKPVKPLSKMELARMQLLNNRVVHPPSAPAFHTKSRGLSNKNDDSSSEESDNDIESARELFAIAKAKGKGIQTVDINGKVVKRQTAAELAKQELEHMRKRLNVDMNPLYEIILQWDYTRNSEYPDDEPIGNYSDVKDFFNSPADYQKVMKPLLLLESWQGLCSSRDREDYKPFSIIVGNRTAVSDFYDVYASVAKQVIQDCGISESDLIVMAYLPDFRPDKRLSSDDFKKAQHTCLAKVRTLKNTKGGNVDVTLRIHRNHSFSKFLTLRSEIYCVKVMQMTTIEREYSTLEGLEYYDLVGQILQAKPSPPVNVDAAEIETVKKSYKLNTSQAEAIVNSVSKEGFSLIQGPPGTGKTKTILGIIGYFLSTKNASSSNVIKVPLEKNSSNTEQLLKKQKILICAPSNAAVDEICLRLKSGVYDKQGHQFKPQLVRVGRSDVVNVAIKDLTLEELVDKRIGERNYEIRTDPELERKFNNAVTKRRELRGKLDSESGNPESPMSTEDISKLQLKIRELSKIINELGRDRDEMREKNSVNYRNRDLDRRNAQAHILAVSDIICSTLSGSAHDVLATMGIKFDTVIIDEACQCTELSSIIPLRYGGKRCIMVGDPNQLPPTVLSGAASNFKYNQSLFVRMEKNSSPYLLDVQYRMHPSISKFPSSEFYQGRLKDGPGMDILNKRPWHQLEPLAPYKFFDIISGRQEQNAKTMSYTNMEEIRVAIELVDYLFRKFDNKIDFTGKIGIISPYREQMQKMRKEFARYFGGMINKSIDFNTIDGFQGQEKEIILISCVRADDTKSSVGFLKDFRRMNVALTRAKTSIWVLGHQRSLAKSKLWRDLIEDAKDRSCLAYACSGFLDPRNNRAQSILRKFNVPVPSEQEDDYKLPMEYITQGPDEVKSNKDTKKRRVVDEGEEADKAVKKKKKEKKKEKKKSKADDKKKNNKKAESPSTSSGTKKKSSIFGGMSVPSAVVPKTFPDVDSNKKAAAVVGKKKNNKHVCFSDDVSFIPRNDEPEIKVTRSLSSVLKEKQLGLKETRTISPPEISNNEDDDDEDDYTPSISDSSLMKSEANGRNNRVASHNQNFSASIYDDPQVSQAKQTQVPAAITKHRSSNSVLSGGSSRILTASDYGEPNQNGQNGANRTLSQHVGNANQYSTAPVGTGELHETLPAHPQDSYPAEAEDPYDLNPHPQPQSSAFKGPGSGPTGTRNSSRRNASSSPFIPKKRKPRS

B1: Rap1, endogenously expressed (tag not stated) (protein, UniProt P11938 1-827)
chain: MSSPDDFETAPAEYVDALDPSMVVVDSGSAAVTAPSDSAAEVKANQNEENTGATAAETSEKVDQTEVEKKDDDDTTEVGVTTTTPSIADTAATANIASTSGASVTEPTTDDTAADEKKEQVSGPPLSNMKFYLNRDADAHDSLNDIDQLARLIRANGGEVLDSKPRESKENVFIVSPYNHTNLPTVTPTYIKACCQSNSLLNMENYLVPYDNFREVVDSRLQEESHSNGVDNSNSNSDNKDSIRPKTEIISTNTNGATEDSTSEKVMVDAEQQARLQEQAQLLRQHVSSTASITSGGHNDLVQIEQPQKDTSNNNNSNVNDEDNDLLTQDNNPQTADEGNASFQAQRSMISRGALPSHNKASFTDEEDEFILDVVRKNPTRRTTHTLYDEISHYVPNHTGNSIRHRFRVYLSKRLEYVYEVDKFGKLVRDDDGNLIKTKVLPPSIKRKFSADEDYTLAIAVKKQFYRDLFQIDPDTGRSLITDEDTPTAIARRNMTMDPNHVPGSEPNFAAYRTQSRRGPIAREFFKHFAEEHAAHTENAWRDRFRKFLLAYGIDDYISYYEAEKAQNREPEPMKNLTNRPKRPGVPTPGNYNSAAKRARNYSSQRNVQPTANAASANAAAAAAAAASNSYAIPENELLDEDTMNFISSLKNDLSNISNSLPFEYPHEIAEAIRSDFSNEDIYDNIDPDTISFPPKIATTDLFLPLFFHFGSTRQFMDKLHEVISGDYEPSQAEKLVQDLCDETGIRKNFSTSILTCLSGDLMVFPRYFLNMFKDNVNPPPNVPGIWTHDDDESLKSNDQEQIRKLVKKHGTGRMEMRKRFFEKDLL
B2: Nrd1 (protein, UniProt P53617 1-575)
chain: MQQDDDFQNFVATLESFKDLKSGISGSRIKKLTTYALDHIDIESKIISLIIDYSRLCPDSHKLGSLYIIDSIGRAYLDETRSNSNSSSNKPGTCAHAINTLGEVIQELLSDAIAKSNQDHKEKIRMLLDIWDRSGLFQKSYLNAIRSKCFAMDISNNTANTASQQLSLDPKQRSKQILSNLKKSPPLNLNISLPTDLTSTDPAKQQAALFQVIAALQKHFKTLPSHTSVGTVAPPQAHTITEYGSRRERERERERYNSRRNRSRSPPAPFSQPSTGRKDRYPSVAQDQYSIGAPNTTFGTNNHHLYPDELNVSNNPHYRPKPVSYDSTLPPDHIKVYSRTLFIGGVPLNMKEWDLANVLKPFAEVQSVILNNSRKHAFVKVYSRHEAENVLQNFNKDGALPLRTRWGVGFGPRDCCDYQHGYSIIPMHRLTDADKKWSVSAQWGGTSGQPLVTGIVFEEPDIIVGEGVSSKAISQKMPTDSGRNGPRSGKPNKSGSISSISPVPYGNAPLASPPPQQYVQPMMQQPYGYAPNQPLPSQGPAAAAPPVPQQQFDPTAQLNSLMNMLNQQQQQQQQS
B3: Nab3 (protein, UniProt P38996 1-802)
chain: MSDENHNSDVQDIPSPELSVDSNSNENELMNNSSADDGIEFDAPEEEREAEREEENEEQHELEDVNDEEEEDKEEKGEENGEVINTEEEEEEEHQQKGGNDDDDDDNEEEEEEEEDDDDDDDDDDDDEEEEEEEEEEGNDNSSVGSDSAAEDGEDEEDKKDKTKDKEVELRRETLEKEQKDVDEAIKKITREENDNTHFPTNMENVNYDLLQKQVKYIMDSNMLNLPQFQHLPQEEKMSAILAMLNSNSDTALSVPPHDSTISTTASASATSGARSNDQRKPPLSDAQRRMRFPRADLSKPITEEEHDRYAAYLHGENKITEMHNIPPKSRLFIGNLPLKNVSKEDLFRIFSPYGHIMQINIKNAFGFIQFDNPQSVRDAIECESQEMNFGKKLILEVSSSNARPQFDHGDHGTNSSSTFISSAKRPFQTESGDMYNDDNGAGYKKSRRHTVSCNIFVKRTADRTYAIEVFNRFRDGTGLETDMIFLKPRMELGKLINDAAYNGVWGVVLVNKTHNVDVQTFYKGSQGETKFDEYISISADDAVAIFNNIKNNRNNSRPTDYRAMSHQQNIYGAPPLPVPNGPAVGPPPQTNYYQGYSMPPPQQQQQQPYGNYGMPPPSHDQGYGSQPPIPMNQSYGRYQTSIPPPPPQQQIPQGYGRYQAGPPPQPPSQTPMDQQQLLSAIQNLPPNVVSNLLSMAQQQQQQPHAQQQLVGLIQSMQGQAPQQQQQQLGGYSSMNSSSPPPMSTNYNGQNISAKPSAPPMSHQPPPPQQQQQQQQQQQQQQQQPAGNNVQSLLDSLAKLQK
B4: Rif2 (protein, UniProt Q06208 1-395)
chain: MEHVDSDFAPIRRSKKVVDSDKIVKAISDDLEQKNFTVLRKLNLVPIKKSVSSPKVCKPSPVKERVDHVFYQKFKSMALQELGTNYLSISYVPSLSKFLSKNLRSMKNCIVFFDKVEHIHQYAGIDRAVSETLSLVDINVVIIEMNDYLMKEGIQSSKSKECIESMGQASYSGQLDFEASEKPSNHTSDLMMMVMRKINNDESIDHIVYFKFEQLDKLSTSTIIEPSKLTEFINVLSVLEKSNNIAFKVLIYSNNVSISSLLSTSLKKKLNTKYTVFEMPILTCAQEQEYLKKMIKFTFDSGSKLLQSYNSLVTCQLNNKESNLAIFFEFLKVFPHPFTYLFNAYTEIIVQSRTFDELLDKIRNRLTIKNYPHSAYNFKKNQRLPLKLTRKVHDR
B5: Reb1 (protein, UniProt P21538 1-810)
chain: MPSGHNDKNANQESVEEAVLKYVGVGLDHQNHDPQLHTKDLENKHSKKQNIVESSSDVDVNNNDDSNRNEDNNDDSENISALNANESSSNVDHANSNEQHNAVMDWYLRQTAHNQQDDEDDENNNNTDNGNDSNNHFSQSDIVVDDDDDKNKKDAGVGVDDDHQSMAMAAVAAAYTLSKNNNNNNSIANDSNSRKRQHDNGNNHENSQKKRKNNNDDDDRQIGNVDPELTTLGDADDNDTNNDVIDRDQLVHKAIIDADSITQHPDFQQYLNTAADTDDNEKLKHIKDHLMRTHGLNHQNKNHNDDTDDLSNSTKQYSELQKDSMLDSSLNKSRNYMEVLPKVISQDTQPHQQKSPSHDNEAGSVDNSEISQLLQSAATKASSLVSLSSSSATPSTSRSNNSKAFDKAEDAALERFINEYEAIERLTRQQVCERIWSSDRPKDNFWNNIYKVLPYRSSSSIYKHMRRKYHIFEQRGKWTAEEEQELAKLCAEKEGQWAEIGKTLGRMPEDCRDRWRNYVKCGTNRASNRWSVEEEELLKKVISDMLEEAQQQQSQLHPNLLEEEQHLLQDDQNDHRNNDEDDDDTASAAAAAAAAIQEQQQLLQQKQQDDDDAIAAAAAAASSSLGDNKDEDKPHDSLGIQLDDNSQNSMVPAPSATSTHSKSLSNTIRRHNNKLRKSLMGNGKLDFKDIINWTIVSERMGGTRSRIQCRYKWNKLVKREAIAKIQTVKDDDMLWIFEKLRDLGITEDSQVDWDELAALKPGMKLNGLELKLCYERMKKKVKGYKQKSINEISKELVDYFSSNISMKTEN
B6: Cdc13 (protein, UniProt P32797 1-924)
chain: MDTLEEPECPPHKNRIFVSSSKDFEGYPSKAIVPVQFVALLTSIHLTETKCLLGFSNFERRGDQSQEDQYLIKLKFKDRGSERLARITISLLCQYFDIELPDLDSDSGASPTVILRDIHLERLCFSSCKALYVSKHGNYTLFLEDIKPLDLVSVISTISTKSTNSSKHSSSELISECDLNNSLVDIFNNLIEMNRDEKNRFKFVKLIHYDIELKKFVQDQQKVLSQKSKAAAINPFFVPNRLGIPYIESQNEFNSQLMTLNVDEPTTDISNMGEEMHDSADPIEDSDSSTTSSTGKYFSSKSYIQSQTPERKTSVPNNWHDDDSGSKRKRKLSFHSPNASSIRKAISYEQLSLASVGSVERLEGKIVGMNPPQFASINEFKYCTLKLYFTQLLPNVPDKVLVPGVNCIEIVIPTRERICELFGVLNCQSDKISDILLLEKPDRISVEVERILWDNDKTASPGMAVWSLKNISTDTQAQAQVQVPAQSSASIDPSRTRMSKMARKDPTIEFCQLGLDTFETKYITMFGMLVSCSFDKPAFISFVFSDFTKNDIVQNYLYDRYLIDYENKLELNEGFKAIMYKNQFETFDSKLRKIFNNGLRDLQNGRDENLSQYGIVCKMNIKVKMYNGKLNAIVRECEPVPHSQISSIASPSQCEHLRLFYQRAFKRIGESAISRYFEEYRRFFPIHRNGSHLAKLRFDEVKHEPKKSPTTPALAEHIPDLNADVSSFDVKFTDISSLLDSSARLPRPQQTHKSNTLYSCEGRIIAIEYHASDLCFHITNELPLLQTRGLAPERVLQLHIITSKNFAYFFNRSSAYLQRQPLEEKYTQLAQFLGHSFKFNITSSLTLFPDTTVALQIWCPIECTFRELQQQLAHPKVAAAPDSGSLDCAINATVNPLRLLAAQNGVTVKKEEDNDDDAGAVPTS

Key:
[1] = target: senataxin (SETX), homolog of Sen1 (human (in human cell lines: HeLa, HUVEC, HEK293T)) (UniProt Q7Z333); assay: co-IP; mammalian cells lysed in buffer A (50 mM Tris pH7.4, 150 mM NaCl, 1 mM EDTA, 6 mM sodium deoxycholate, 1% NP-40); antibody on Protein A/G Sepharose, 4 °C overnight; immunoblot
[2] = target: Rif1 (mammalian homolog of yeast Rif1) (human (in human cell lines: HeLa, HUVEC, HEK293T)) (UniProt Q5UIP0); assay: as above
[3] = target: PPP1CA (PP1 catalytic subunit, alpha isoform) (human (in human cell lines: HeLa, HUVEC, HEK293T)) (UniProt P62136); assay: as above
[4] = target: Glc7 (protein phosphatase 1 catalytic subunit), endogenously expressed (budding yeast (endogenous in yeast cells)) (UniProt P32598); assay: co-IP; yeast whole cell extract; anti-FLAG M2 agarose, calmodulin Sepharose beads or antibody on Protein A/G Sepharose, 4 °C; washes with 350 mM NaCl, 0.1% NP-40; immunoblot; also cells in SD (+Glu) or SD-C (-Glu) medium for 2 h (Sen1-Glc7 increased, Rif1-Glc7 unaffected without glucose)
[5] = target: Sen1, endogenously expressed (tag not stated) (budding yeast (endogenous in yeast cells)) (UniProt Q00416); assay: as above

| Molecule | binding [4] | further results |
| --- | --- | --- |
| PPP1CA (PP1 catalytic subunit, alpha isoform) (from UniProt P62136 1-330) (enzyme) |  | binding [1]: binds; binding [2]: binds |
| Rif1 (mammalian homolog of yeast Rif1) (from UniProt Q5UIP0 1-2472) |  | binding [3]: binds |
| senataxin (SETX), homolog of Sen1 (from UniProt Q7Z333 1-2677) |  | binding [3]: binds |
| Rif1 (Rap1-interacting factor 1), endogenously expressed (tag not stated) (from UniProt P29539 1-1916) | binds | binding [5]: no binding |
| Sen1-TAP, endogenously expressed (from UniProt Q00416 1-2231) | binds |  |
| B1 | binds | binding [5]: no binding |
| B2 | binds |  |
| B3 | binds |  |
| B4 | no binding |  |
| B5 | no binding |  |
| B6 | no binding |  |
